Source: the supplement of paper PMC10320760
The data scatter; read single values as rough.

B1: Ydj1; a variant is named by its letters at X, in order (parent)
chain: MVKETKFYDILGVPVTATDVEIKKAYRKCALKYHPDKNPSEEAAEKFKEASAAYEILSDPEKRDIYDQFGEDGLSGAGGAGGFPGGGFGFGDDIFSQFFGAGGAQRPRGPQRGKDIKHEISASLEELYKGRTAKLALNKQILCKECEGRGGKKGAVKKCTSCNGQGIKFVTRQMGPMIQRFQTECDVCHGTGDIIDPKDRCKSCNGKKVENERKILEVHVEPGMKDGQRIVFKGEADQAPDVIPGDVVFIVSERPHKSFKRDGDDLVYEAEIDLLTAIAGGEFALEHVSGDWLKVGIVPGEVIAPGMRKVIEGKGMPIPKYGGYGNLIIKFTIKFPENHFTSEENLKKLEEILPPRIVPAIPKKATVDECVLADFDPAKYNRTRASRGGANYDSDEEEQGGEGVQCXXX

Variants of: B1
Assay: enrichment factor, frequency at 37 °C / frequency at 25 °C (thermotolerance selection) (ratio); higher = more growth at 37 °C, higher likelihood of farnesylation
Settings: with Saccharomyces cerevisiae ydj1Δ (yWS304); selective temperature 37 °C; reference temperature 25 °C
Description: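 Pooled library of all 8,000 Ydj1-CXXX C-terminal motif variants (native CASQ replaced by C + three variable residues, one codon per amino acid) expressed from a CEN plasmid in S. cerevisiae ydj1Δ (yWS304). The library was grown in SC-Ura liquid to A600 ~2 (~8 generations) at permissive 25 °C or selective 37 °C. Reads from 8 and 7 replicates were pooled and variants counted by NGS. Enrichment factor = frequency at 37 °C / frequency at 25 °C, with a +1 correction; it reports Ydj1-dependent thermotolerance, used as a read-out of farnesylation by yeast FTase.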

Variant	enrichment factor
MLP	0.255
NLP	0.295
PLP	0.117
QLP	0.171
RLP	0.157
CLP	1.01
SLP	0.19
TLP	0.114
VLP	0.195
WLP	3.38
YLP	3.21
DLP	0.267
ELQ	2.59
FLQ	2.08
ALQ	2.38
GLQ	1.47
HLQ	4.03
ILQ	2.07
KLQ	1.85
LLQ	1.79
MLQ	2.8
NLQ	2.82
PLQ	1.32
QLQ	4.11

Variant	enrichment factor
RLQ	2.41
CLQ	1.13
SLQ	2.23
TLQ	1.77
VLQ	1.11
WLQ	2.99
YLQ	4.34
DLQ	2.38
ELR	0.53
FLR	0.292
ALR	0.988
GLR	0.185
HLR	0.133
ILR	1.59
KLR	0.113
LLR	0.4
MLR	0.23
NLR	0.228
PLR	0.192
QLR	0.868
RLR	0.107
CLR	0.716
SLR	0.345
TLR	0.809

Variant	enrichment factor
VLR	1.28
WLR	0.242
YLR	0.153
DLR	0.132
ELS	3.86
FLS	3.47
ALS	1.72
GLS	1.34
HLS	2.84
ILS	1.76
KLS	1.72
LLS	1.41
MLS	2.24
NLS	1.36
PLS	1.5
QLS	2.51
RLS	1.08
CLS	0.746
SLS	0.996
TLS	1.08
VLS	0.494
WLS	2.9
YLS	3.71
DLS	2.06

Variant	enrichment factor
ELT	2.07
FLT	0.579
ALT	0.713
GLT	1.44
HLT	2.36
ILT	1.03
KLT	2.54
LLT	1.99
MLT	1.93
NLT	1.35
PLT	1.58
QLT	2.85
RLT	1.39
CLT	0.965
SLT	0.557
TLT	0.98
VLT	1.06
WLT	1.7
YLT	1.62
DLT	1.7
ELV	2.24
FLV	3.47
ALV	0.806
GLV	1.26

Variant	enrichment factor
HLV	0.993
ILV	0.96
KLV	2.73
LLV	2.03
MLV	4.05
NLV	0.772
PLV	1.2
QLV	3.96
RLV	0.641
CLV	0.726
SLV	1.07
TLV	0.598
VLV	0.749
WLV	3.19
YLV	1.74
DLV	1.17
ELW	1.29
FLW	1.55
ALW	1.16
GLW	1.42
HLW	1.7
ILW	1.21
KLW	0.602
LLW	1.25

Variant	enrichment factor
MLW	1.2
NLW	1.11
PLW	0.958
QLW	0.788
RLW	1.79
CLW	0.169
SLW	1.36
TLW	0.607
WLW	2.46
YLW	1.17
DLW	0.865
DLY	1.43
ELY	1.9
FLY	2.09
ALY	0.886
GLY	1.62
HLY	0.869
ILY	3.01
KLY	2.11
LLY	1.88
MLY	1.51
NLY	1.96
PLY	0.959
QLY	2.76

Variant	enrichment factor
RLY	1.4
CLY	0.999
SLY	1.85
TLY	1.02
VLY	0.745
WLY	2.06
YLY	2.75
DMA	1.53
EMA	1.96
FMA	1.35
AMA	1.48
GMA	1.3
HMA	4.56
IMA	1.95
KMA	4.05
LMA	1.8
MMA	2.32
NMA	1.83
PMA	1.1
QMA	2.92
RMA	3.09
CMA	0.882
SMA	2.29
TMA	1.26

Variant	enrichment factor
VMA	0.632
WMA	1.16
YMA	1.74
DMC	1.27
EMC	1.26
FMC	0.98
AMC	1.44
GMC	0.602
HMC	1.43
IMC	2.2
KMC	0.98
LMC	2.01
MMC	1.71
NMC	1.32
PMC	0.882
QMC	1.3
RMC	0.345
CMC	0.76
SMC	0.267
TMC	1.54
VMC	0.876
WMC	0.29
YMC	2.03
DMD	0.529

Variant	enrichment factor
EMD	1.41
FMD	1.57
AMD	1.63
GMD	1.48
HMD	1.88
IMD	1.36
KMD	1.79
LMD	1.51
MMD	1.71
NMD	2.01
PMD	2.05
QMD	1.62
RMD	1.55
CMD	1.84
SMD	1.85
TMD	2.11
VMD	2.27
WMD	1.79
YMD	2.21
DME	0.29
EME	1.31
FME	1.77
AME	1.78
GME	1.51

Variant	enrichment factor
HME	2.24
IME	1.45
KME	1.4
LME	1.35
MME	1.38
NME	1.51
PME	1.46
QME	1.74
RME	1.64
CME	2.15
SME	1.7
TME	1.64
VME	1.56
WME	1.65
YME	1.85
DMF	1.48
EMF	2.32
FMF	0.891
AMF	2.05
GMF	1.42
HMF	2.61
IMF	1.45
KMF	1.3
LMF	3.11

Variant	enrichment factor
MMF	0.869
NMF	1.07
PMF	0.785
QMF	1.38
RMF	1.24
CMF	0.767
SMF	3.37
TMF	1.85
VMF	1.08
WMF	1.35
YMF	3.86
DMG	1.47
EMG	1.72
FMG	3.9
AMG	2.37
GMG	1.82
HMG	2.27
IMG	1.57
KMG	2.32
LMG	2.06
MMG	1.85
NMG	1.43
PMG	1.56
QMG	3.72

Variant	enrichment factor
RMG	2.21
CMG	1.29
SMG	2.47
TMG	1.7
VMG	1.56
WMG	2.03
YMG	1.81
DMH	1.3
EMH	1.94
FMH	5.94
AMH	3.21
GMH	1.81
HMH	5.1
IMH	2.46
KMH	3.85
LMH	2.92
MMH	1.84
NMH	2.79
PMH	1.26
QMH	2.2
RMH	1.69
CMH	1.8
SMH	3.86
TMH	2.45

Variant	enrichment factor
VMH	3.19
WMH	1.27
YMH	6.37
DMI	1.86
EMI	2.21
FMI	3.87
AMI	1.18
GMI	1.16
HMI	1.16
IMI	1.49
KMI	3.04
LMI	1.93
MMI	0.463
NMI	1.48
PMI	0.704
QMI	1.16
RMI	1.12
CMI	1.21
SMI	0.897
TMI	0.695
VMI	0.772
WMI	1.65
YMI	3.01
DMK	0.145

Variant	enrichment factor
EMK	1.38
FMK	0.238
AMK	1.31
GMK	0.219
HMK	1.58
IMK	1.22
KMK	1.08
LMK	1.56
MMK	1.42
NMK	0.987
PMK	1.51
QMK	1.49
RMK	1.39
CMK	1.3
SMK	1.53
TMK	2.16
VMK	3.01
WMK	0.264
YMK	0.36
DML	1.31
EML	1.65
FML	3.76
